# Test results from PubChem BioAssay AID1345082 (National Center for Advancing Translational Sciences (NCATS), 2018).
# In all, about 94,000 compounds went through this assay and about 4,000 (4.3%) were called active. The shares of active, inactive and inconclusive entries below differ from those in the screen. Calls follow the shape of the dose curve; as a rule, active = well fitted inhibition curve with a large enough effect; inconclusive = small, poorly fitted or top-dose-only effect; inactive = no such curve, though single readings can be large or run the other way. Potencies beside an inconclusive call are fits to weak or partial responses and may not hold up.
# Assay: Cytotoxic Profiling in NIH 3T3 Cell Line of Diverse Libraries Using Quantitative High-Throughput Screening; also: nearly all actives have a fitted effect of over 55% in size
# Details: NIH 3T3 viability, CellTiter-Glo ATP luminescence, 48-72 h; series mostly up to 96.7 µM
# Outline: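 Cytotoxicity was measured by CellTiter-Glo ATP luminescence after 48 or 72 h compound exposure at 37 °C. Mouse NIH 3T3 fibroblasts were seeded at 400 cells/well and dosed by 23 nL pin transfer.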
# Potency is read from the fitted curve at half-maximal effect; tags tell the direction and shape of the fitted curve.
row,Compound,Potency
1,O=C(c1ccc(F)c(F)c1)N1CCCC(n2cc(-c3nc(-c4ccccc4)no3)nn2)C1 (configuration not stated),"inconclusive: 50.1 µM [inhibitor, partial curve, poor fit]"
2,CN(Cc1cccc(N2CCN(C(=O)c3c(Cl)cccc3Cl)CC2)c1F)[S+](C)(=O)[O-],"inconclusive: 44.7 µM [inhibitor, partial curve, poor fit]"
3,COCCc1noc(C2CCCN(C(=O)Cn3ncc4ccccc4c3=O)C2)n1 (configuration not stated),inactive
4,O=C(Nc1ccc(Oc2ccccc2)cc1)O[C@@H]1CO[C@H]2[C@@H]1OC[C@@H]2NC(=O)c1cnccn1,inactive
5,COc1ccccc1-c1cccc(C(=O)N2CCN(C(=O)NC3CCCC3)CC2)c1,"inconclusive: 50.1 µM [inhibitor, partial curve, poor fit]"
6,O=C(Nc1ccc(Cl)cc1)N1CCN(CCn2nc3n(c2=O)CCCC3)CC1,inactive
7,CCc1noc(-c2cn(C3CCCN(C(=O)c4ccc5c(c4)OCO5)C3)nn2)n1 (configuration not stated),inactive
8,O=C(Nc1ccc(F)cc1)c1cc2cccnn2n1,"inconclusive: 89.1 µM [inhibitor, partial curve, poor fit]"
9,CCOC(=O)C1CCN(C(=O)CC(c2ccc(Cl)cc2)c2cn(C)c3ccccc23)CC1 (configuration not stated),"inconclusive: 50.1 µM [inhibitor, partial curve, poor fit]"
10,Cc1nn(-c2ccc(F)cc2)c(Oc2ccccc2F)c1CCC(=O)N1CCSCC1,"inconclusive: 56.2 µM [inhibitor, partial curve, poor fit]"
11,COc1ccc2c(c1)OCC(CNC(=O)c1cc(-c3ccncc3)n[nH]1)C2 (configuration not stated),"inconclusive: 79.4 µM [inhibitor, partial curve, poor fit]"
12,Cc1ccc(CNC(=O)N2CCCC(CN3CCC(C)CC3)CC2)cc1 (configuration not stated),inactive
13,COCCNC(=O)[C@@H]1C[C@@H](O)CN1C1CCN(C(=O)C2CCC2)CC1,inactive
14,CC(C)N1C[C@@H]2C[C@H]1C(=O)N(Cc1ccc(OC(F)(F)F)cc1)c1ccccc1O2,"inconclusive: 56.2 µM [inhibitor, partial curve, poor fit]"
15,COc1ccc(CC(=O)N[C@@H]2CN(c3ccccn3)C[C@H]2CN(C)C)cc1OC,inactive
16,CCCn1cc(C(=O)NCC2COc3cc(OC)ccc3C2)c(C)n1 (configuration not stated),"inconclusive: 63.1 µM [inhibitor, partial curve, poor fit]"
17,Cc1ccsc1CN1CCCCCCN(C)C(=O)[C@@H]2CCC[C@@H]21,"inconclusive: 70.8 µM [inhibitor, partial curve, poor fit]"
18,COC[C@@H]1CN(C(=O)c2cc3ccccc3[nH]2)C[C@H]1c1ccccn1,inactive
19,COc1ccc(-c2cc(C[C@H]3CNCC[C@H]3CC(=O)Nc3nccs3)no2)cc1,active: 79.4 µM
20,COc1cccc(Nc2ncc(-c3ccccc3OC)c3c2OCC3)c1,"inconclusive: 22.4 µM [inhibitor, full curve, poor fit]"
21,O=C(O)Cn1ccc2cc(OCCc3cccc(-c4ccccc4F)c3)cnc21,inactive
22,O=C(C1CCCC1)N1CCc2nc(C3CC3)nc(-c3ccc(O)cc3)c2CC1,"inconclusive: 50.1 µM [inhibitor, partial curve, poor fit]"
23,COc1ccccc1N1CCN(C(=O)Cn2c(-c3ccc(F)cc3)nc(C)cc2=O)CC1,"inconclusive: 44.7 µM [inhibitor, partial curve, poor fit]"

row,Compound,Potency
1,CC(=O)N1CC2(CCN(Cc3cccc(C(N)=O)c3)CC2)Cc2ccccc21,inactive
2,O=C(C1CCCC1)N1CC2(CCN(C3CCCCC3)C2)Cc2ccccc21 (configuration not stated),"inconclusive: 44.7 µM [inhibitor, partial curve, poor fit]"
3,N#Cc1ccc2nc([C@H]3CCN(Cc4ccc(F)c(F)c4)C3)[nH]c2c1,active: 31.6 µM
4,COc1ccc(Cl)cc1NC(=O)C1CN(S(C)(=O)=O)CC12CCCCC2 (configuration not stated),"inconclusive: 70.8 µM [inhibitor, single point]"
5,CC(C)N1C(=O)C2(CCCC2)C1C(=O)NCCCN1CCCC1=O (configuration not stated),inactive
6,O=C(c1ccccc1)N1CCC2(CC1)C(=NC1CCCCC1)NC(=O)N2c1cc(F)cc(F)c1,active: 31.6 µM
7,CCOc1ccc(C(=O)N2CCC3(CC2)C(=O)N(C)c2ccccc23)cc1OCC,"inconclusive: 44.7 µM [inhibitor, partial curve]"
8,Cc1ccc(CNC(=O)c2ccc3c(c2)CN(Cc2ccncc2)CCO3)cc1,"inconclusive: 8.91 µM [inhibitor, partial curve, poor fit]"
9,COc1ccccc1CNC(=O)C1CCCN1c1nccc(Nc2ccccc2F)n1 (configuration not stated),"inconclusive: 50.1 µM [inhibitor, single point]"
10,O=C(Nc1ccc(Cl)cc1)N1CCC(C(=O)N2CCC(N3CCOC3=O)CC2)CC1,inactive
11,Cc1cc2nc3n(c(=O)c2n1CC(=O)Nc1ccccc1C(C)C)CCCCC3,inactive
12,Cc1cnc(C2CC2)n1C1CCN(C(=O)CC(C)C)CC1,inactive
13,O=C(N[C@H]1CC[C@H](Nc2nccc(-c3cccnc3)n2)C1)c1ccc(O)cc1,"inconclusive: 50.1 µM [inhibitor, partial curve, poor fit]"
14,CCNC(=O)C1C(c2cccc(NC(=O)c3ccccc3)c2)OC(=O)N1Cc1ccc(C)cc1 (configuration not stated),"inconclusive: 50.1 µM [inhibitor, partial curve, poor fit]"
15,c1ccc(CN2C[C@@H]3C[C@H]2CN3Cc2cn(-c3ccccc3)nn2)cc1,inactive
16,O=C(NCCc1cccs1)C1CCN(C(=O)c2ncn3c2COC(c2ccccc2)C3)CC1 (configuration not stated),inactive
17,COc1ccc(-c2cnc3n[nH]c(-c4ccc(F)cc4C)c3n2)cn1,active: 50.1 µM
18,Cc1cc(C(F)(F)F)nn1CCNC(=O)C1COc2ccccc2C1 (configuration not stated),inactive
19,C[C@@H]1C(=O)O[C@H]2[C@H]1CC[C@@]1(C)Cc3sc(NC(=O)c4ccc(N(C)C)cc4)nc3[C@@H](C)[C@H]21,active: 31.6 µM
20,N#Cc1ccc(C(=O)Nc2cccc(-c3nnc4n3CCCC4)c2)cc1,inactive
21,COc1ccc(CC(=O)NC2CCCc3c2[nH]c2c(Cl)cccc32)cc1OC (configuration not stated),active: 12.6 µM
22,Cc1ccc(-c2cn(C3CCN(C(=O)c4ccc(Cl)cc4)CC3)c(=O)[nH]2)cc1,"inconclusive: 2.51 µM [inhibitor, full curve, poor fit]"
23,CCC(CNC(=O)c1csc2nc(-c3ccccc3Cl)cn12)N(C)C (configuration not stated),"inconclusive: 50.1 µM [inhibitor, partial curve, poor fit]"

row,Compound,Potency
1,CCOCCNC(=O)c1cc(-c2cccc(F)c2)nc2c1cnn2C,"inconclusive: 112 µM [inhibitor, partial curve, poor fit]"
2,O=C(Nc1ccc(C2(C(=O)NCc3ccc(F)c(Cl)c3)CCC2)cc1)C1CC1,"inconclusive: 44.7 µM [inhibitor, partial curve, poor fit]"
3,O=C(c1ccccc1Cl)N1CCC(c2nn(-c3ccccc3)c(=O)[nH]2)CC1,"inconclusive: 39.8 µM [inhibitor, partial curve, poor fit]"
4,O=C(Nc1cccc(C(F)(F)F)c1)N[C@H]1CO[C@H]2[C@@H]1OC[C@H]2OC(=O)Nc1ccccc1,"inconclusive: 50.1 µM [inhibitor, partial curve, poor fit]"
5,C=CCNC(=O)Cc1ccc(N(Cc2ccc(OC)cc2)C(=O)c2ccco2)cc1,inactive
6,Cc1noc(C)c1C(=O)N1CC[C@H](N2CCN(C)CC2)[C@H](CCC(=O)O)C1,inactive
7,O=C(NCCc1ccccc1)C1c2ccccc2C(=O)N(Cc2ccccc2)C12CCCC2 (configuration not stated),active: 31.6 µM
8,COc1ccc(CN2CCCC3(CC(c4cccc(C(F)(F)F)c4)=NO3)C2)cc1 (configuration not stated),"inconclusive: 56.2 µM [inhibitor, partial curve, poor fit]"
9,CCCCN1CCN(C(=O)[C@@]23CCCC[C@H]2N(CCC(C)C)C(=O)CC3)CC1,inactive
10,OC1(CN2CCCCC2)CCN(c2cccc(C(F)(F)F)n2)C1 (configuration not stated),inactive
11,CC1(C)C[C@H](NCC2CCCCC2)[C@@]2(CCC(=O)N3CCCC3)CC[C@](C)(O)C[C@@H]12,"inconclusive: 112 µM [inhibitor, partial curve, poor fit]"
12,O=C(Cc1cccc(F)c1)N1CCC2(CC1)NC(=O)N(c1cccc(F)c1)N2,"inconclusive: 44.7 µM [inhibitor, partial curve, poor fit]"
13,CC1(C)CC(NC(=O)c2cc(Cn3cnc4ccccc43)[nH]n2)CC(C)(C)N1,inactive
14,COc1ccc(CCC(=O)NC2CCN(c3cc(C(F)(F)F)nc(C)n3)CC2)cc1,inactive
15,COc1ccc(Nc2ccnc(N3CCC(NC(=O)N(C)C)CC3)n2)cc1,"inconclusive: 50.1 µM [inhibitor, partial curve, poor fit]"
16,Cc1ccccc1C(=O)NC1CCN(c2cc(-c3cccs3)[nH]n2)C1 (configuration not stated),inactive
17,O=C(c1cncc(N2CCCC(CCc3cccc(F)c3)C2)n1)N1CCCCC1 (configuration not stated),"inconclusive: 35.5 µM [inhibitor, partial curve]"
18,Cn1ncc2c(C(=O)NCc3ccccn3)cc(-c3ccc(C(F)(F)F)cc3)nc21,"inconclusive: 35.5 µM [inhibitor, partial curve, poor fit]"
19,CCn1nc(C)cc1C(=O)N[C@H]1[C@H](O)[C@H](O)C[C@@H]1c1cccnc1,inactive
20,COc1ccc(C(C)NC(=O)c2noc(-c3ccccc3F)n2)cc1OC (configuration not stated),"inconclusive: 25.1 µM [inhibitor, partial curve, poor fit]"
21,CC(C)c1cc(C(=O)NCC2OCCc3ccccc32)nc2ncnn12 (configuration not stated),inactive
